# Laboratory results published in a collection of fitness landscapes (doi:10.1126/science.1257360).
# Some of the results follow.
# B1: PhoQ; a variant is named by its letters at X, in order, P23837 (parent)
# chain: MKKLLRLFFPLSLRVRFLLATAAVVLVLSLAYGMVALIGYSVSFDKTTFRLLRGESNLFYTLAKWENNKLHVELPENIDKQSPTMTLIYDENGQLLWAQRDVPWLMKMIQPDWLKSNGFHEIEADVNDTSLLLSGDHSIQQQLQEVREDDDDAEMTHSVAVNVYPATSRMPKLTIVVVDTIPVELKSSYMVWSWFIYVLSANLLLVIPLLWVAAWWSLRPIEALAKEVRELEEHNRELLNPATTRELTSLVRNLNRLLKSERERYDKYRTTLTDLTHSLKTPLXXLQXXLRSLRSEKMSVSDAEPVMLEQISRISQQIGYYLHRASMRGGTLLSRELHPVAPLLDNLTSALNKVYQRKGVNISLDISPEISFVGEQNDFVEVMGNVLDNACKYCLEFVEISARQTDEHLYIVVEDDGPGIPLSKREVIFDRGQRVDTLRPGQGVGLAVAREITEQYEGKIVAGESMLGGARMEVIFGRQHSAPKDE
# Variants of: B1
# Assay: enrichment ratio after two sorts for PhoP signalling (ratio (wild type AVST 3.29)); higher = more functional
# Details: with PhoP (E. coli)
row,Variant,enrichment ratio
1,GLVT,≤ 0.25
2,QFCG,≤ 0.25
3,IPGI,≤ 0.25
4,DLLP,≤ 0.25
5,LAVL,≤ 0.25
6,KYTL,≤ 0.25
7,IETL,≤ 0.25
8,YMMN,≤ 0.25
9,MAHP,≤ 0.25
10,FPQS,≤ 0.25
11,KCPC,≤ 0.25
12,QDMC,≤ 0.25
13,AQKI,≤ 0.25
14,LVLE,≤ 0.25
15,ASCN,15.3
16,HQVC,≤ 0.25
17,WKET,≤ 0.25
18,QTIY,≤ 0.25
19,WQIA,≤ 0.25
20,LFYQ,≤ 0.25
21,RCTT,≤ 0.25
22,VNIV,≤ 0.25
23,DCHP,≤ 0.25
24,VNTG,≤ 0.25

row,Variant,enrichment ratio
1,EPHY,≤ 0.25
2,TDIG,2.81
3,AKMA,≤ 0.25
4,FGPW,≤ 0.25
5,HPTC,≤ 0.25
6,HLAK,≤ 0.25
7,AYTN,≤ 0.25
8,YQME,≤ 0.25
9,DISF,≤ 0.25
10,YWYV,≤ 0.25
11,ITHI,≤ 0.25
12,WTND,≤ 0.25
13,LGLC,0.714
14,PWKC,≤ 0.25
15,FPKN,≤ 0.25
16,LPAH,≤ 0.25
17,MGYI,13.6
18,HHCY,≤ 0.25
19,VGYE,≤ 0.25
20,KDFL,≤ 0.25
21,GWAW,≤ 0.25
22,IQNS,≤ 0.25
23,KDKL,≤ 0.25
24,RVSR,≤ 0.25

row,Variant,enrichment ratio
1,NCGG,≤ 0.25
2,VPIG,≤ 0.25
3,SYDN,≤ 0.25
4,FVCD,≤ 0.25
5,AYCA,≤ 0.25
6,TGYA,5.15
7,WRVK,≤ 0.25
8,ATKN,≤ 0.25
9,IMIR,≤ 0.25
10,ANSN,10.7
11,ANCE,56
12,PEWC,≤ 0.25
13,MGYQ,14
14,VFDA,≤ 0.25
15,DIEQ,≤ 0.25
16,YIIW,≤ 0.25
17,PEFL,≤ 0.25
18,TQEV,5.41
19,NLAI,≤ 0.25
20,FIRK,≤ 0.25
21,PWQY,≤ 0.25
22,SKRE,≤ 0.25
23,FPVS,≤ 0.25
24,SPHE,≤ 0.25

row,Variant,enrichment ratio
1,MGTI,12.5
2,IPWM,≤ 0.25
3,RWKD,≤ 0.25
4,DDQS,≤ 0.25
5,SPEL,≤ 0.25
6,DLTI,≤ 0.25
7,HSHR,≤ 0.25
8,IQQG,≤ 0.25
9,SWAT,≤ 0.25
10,TWDT,≤ 0.25
11,TVSL,14.4
12,LRWK,≤ 0.25
13,WMKM,≤ 0.25
14,YQFA,≤ 0.25
15,RLQP,≤ 0.25
16,GHKY,≤ 0.25
17,RKFS,≤ 0.25
18,AEFL,9.72
19,AYWR,≤ 0.25
20,NKLK,≤ 0.25
21,LSPK,≤ 0.25
22,GPQS,≤ 0.25
23,MMEA,≤ 0.25
24,QNPL,≤ 0.25

row,Variant,enrichment ratio
1,DWSF,≤ 0.25
2,AAFD,≤ 0.25
3,DADV,≤ 0.25
4,NGQS,≤ 0.25
5,GSID,≤ 0.25
6,KHCY,≤ 0.25
7,YPPH,≤ 0.25
8,FYTD,≤ 0.25
9,QYWV,≤ 0.25
10,RRQS,≤ 0.25
11,NNTA,≤ 0.25
12,LECQ,0.698
13,MENN,≤ 0.25
14,GEFQ,≤ 0.25
15,QNYS,≤ 0.25
16,FWDG,≤ 0.25
17,KKSD,≤ 0.25
18,QDMY,≤ 0.25
19,FGLC,7.57
20,GSCP,≤ 0.25
21,PGMI,≤ 0.25
22,NWDY,≤ 0.25
23,NFWF,≤ 0.25
24,LTKR,≤ 0.25

row,Variant,enrichment ratio
1,HDRW,≤ 0.25
2,RPTE,≤ 0.25
3,EVPM,≤ 0.25
4,CPHI,≤ 0.25
5,TIDY,≤ 0.25
6,FYFG,≤ 0.25
7,QDAG,≤ 0.25
8,YHGI,≤ 0.25
9,NPMW,≤ 0.25
10,TQID,≤ 0.25
11,NCVA,≤ 0.25
12,RKFC,≤ 0.25
13,SYIH,≤ 0.25
14,HLIK,≤ 0.25
15,RNFS,≤ 0.25
16,MDYR,≤ 0.25
17,NTGM,≤ 0.25
18,TRMH,≤ 0.25
19,VYDR,≤ 0.25
20,DIDD,≤ 0.25
21,KPTI,≤ 0.25
22,PFRT,≤ 0.25
23,EQIG,≤ 0.25
24,MDCY,≤ 0.25

row,Variant,enrichment ratio
1,LFNK,0.702
2,MHGG,≤ 0.25
3,FITC,≤ 0.25
4,YFQN,≤ 0.25
5,RKLT,≤ 0.25
6,RPHR,≤ 0.25
7,RATV,≤ 0.25
8,FIWQ,≤ 0.25
9,TNQH,15
10,YMWF,≤ 0.25
11,SMYW,≤ 0.25
12,HKIR,≤ 0.25
13,HAGD,≤ 0.25
14,PEFC,≤ 0.25
15,DINP,≤ 0.25
16,WNPK,≤ 0.25
17,YYPL,≤ 0.25
18,REDW,≤ 0.25
19,EHTA,≤ 0.25
20,LGRR,≤ 0.25
21,KCMA,≤ 0.25
22,EFCP,≤ 0.25
23,TDCR,4.57
24,ALMT,≤ 0.25

row,Variant,enrichment ratio
1,DYRW,≤ 0.25
2,NYGL,≤ 0.25
3,ADHK,≤ 0.25
4,RIWI,≤ 0.25
5,TEQF,7.26
6,TTFG,0.578
7,WDKP,≤ 0.25
8,IHSS,≤ 0.25
9,WLSL,≤ 0.25
10,RLWR,≤ 0.25
11,EMHW,≤ 0.25
12,LYMI,0.418
13,GFAF,≤ 0.25
14,NKET,≤ 0.25
15,TWAL,≤ 0.25
16,MDYP,≤ 0.25
17,HPWE,≤ 0.25
18,PDML,≤ 0.25
19,NFFS,≤ 0.25
20,AGMV,4.64
21,WHFL,≤ 0.25
22,YREH,≤ 0.25
23,QEPW,≤ 0.25
24,ERGS,≤ 0.25

row,Variant,enrichment ratio
1,RPPI,≤ 0.25
2,IPFA,≤ 0.25
3,SLAP,≤ 0.25
4,QLLW,≤ 0.25
5,EDDL,≤ 0.25
6,GEEV,≤ 0.25
7,LPAT,≤ 0.25
8,NITD,≤ 0.25
9,YVYD,≤ 0.25
10,DVAC,≤ 0.25
11,QDVR,≤ 0.25
12,PLRK,≤ 0.25
13,AKNT,≤ 0.25
14,GGHC,≤ 0.25
15,VGIS,≤ 0.25
16,GKML,2.04
17,TEYH,20.6
18,LTGT,≤ 0.25
19,WHIQ,≤ 0.25
20,AHGD,≤ 0.25
21,QQKE,≤ 0.25
22,TVFW,≤ 0.25
23,LHMN,≤ 0.25
24,QFKN,≤ 0.25

row,Variant,enrichment ratio
1,FGCE,≤ 0.25
2,AALV,12.9
3,VWHA,≤ 0.25
4,LYEG,≤ 0.25
5,VMGP,≤ 0.25
6,PPIA,≤ 0.25
7,PELI,≤ 0.25
8,MANL,≤ 0.25
9,QQHE,≤ 0.25
10,FKVP,≤ 0.25
11,WILY,≤ 0.25
12,QDQQ,≤ 0.25
13,YGKK,≤ 0.25
14,KICL,≤ 0.25
15,GAWP,≤ 0.25
16,ARMG,≤ 0.25
17,YNKA,≤ 0.25
18,VVAV,≤ 0.25
19,CLTV,≤ 0.25
20,MFCA,≤ 0.25
21,MASA,≤ 0.25
22,PWMQ,≤ 0.25
23,ANIY,0.312
24,DENC,≤ 0.25

row,Variant,enrichment ratio
1,KVAC,≤ 0.25
2,RVYK,≤ 0.25
3,ESTH,≤ 0.25
4,ALDP,≤ 0.25
5,MRLM,≤ 0.25
6,PATE,≤ 0.25
7,THWL,0.311
8,ESCQ,≤ 0.25
9,KGRN,≤ 0.25
10,TAYC,11.3
11,DGFE,≤ 0.25
12,GATG,≤ 0.25
13,GVFH,≤ 0.25
14,FWYW,≤ 0.25
15,SWFN,0.515
16,FLNP,≤ 0.25
17,VTVA,≤ 0.25
18,DQCI,≤ 0.25
19,AADG,≤ 0.25
20,LIWK,≤ 0.25
21,HYTI,≤ 0.25
22,SAKG,≤ 0.25
23,TMTS,11.7
24,PGKC,≤ 0.25

row,Variant,enrichment ratio
1,LLDH,≤ 0.25
2,YSLA,6.93
3,VAPC,≤ 0.25
4,NNFV,≤ 0.25
5,NMNS,≤ 0.25
6,RCHC,≤ 0.25
7,PDAD,≤ 0.25
8,RWQH,≤ 0.25
9,WTAN,≤ 0.25
10,IGGM,≤ 0.25
11,YFFD,≤ 0.25
12,PIKM,≤ 0.25
13,YSYS,≤ 0.25
14,VCTS,≤ 0.25
15,IQCP,≤ 0.25
16,ASAK,1.25
17,HEKW,≤ 0.25
18,LYPW,≤ 0.25
19,ISTQ,≤ 0.25
20,MKDP,≤ 0.25
21,THWH,2
22,DAKM,≤ 0.25
23,IYGQ,≤ 0.25
24,RTAT,≤ 0.25

row,Variant,enrichment ratio
1,IPER,≤ 0.25
2,RANM,≤ 0.25
3,NPWS,≤ 0.25
4,TPPF,≤ 0.25
5,ILWD,≤ 0.25
6,SDGC,≤ 0.25
7,QAKN,≤ 0.25
8,SKHC,≤ 0.25
9,ESAS,≤ 0.25
10,AFYG,≤ 0.25
11,MDMC,≤ 0.25
12,NCMG,≤ 0.25
13,NRNI,≤ 0.25
14,NAHF,≤ 0.25
15,FLPA,≤ 0.25
16,MCNS,≤ 0.25
17,VARV,≤ 0.25
18,PWCA,0.76
